Data from ChEMBL document CHEMBL4888484, “Replenishing the malaria drug discovery pipeline: Screening and hit evaluation of the MMV Hit Generation Library 1 (HGL1) against asexual blood stage Plasmodium falciparum ,using a nano luciferase reporter read-out” (2022).
Screen size: about 150,000 compounds; about 540 (0.36%) showed an effect of 50% or more. The list shows a part of the results.

tested on: Plasmodium falciparum; assay: Primary screen in NF54 nanoGlo assay, in single point, at 2uM, 72h; a lower Z score goes with more inhibition; assay type: functional, Erythrocyte; conditions: timepoint 72 hour

Row | Structure (SMILES) | % Inhibition [%] | Z score
1 | CC[C@H](C)c1ccc(NC(=O)c2cccc(COc3ccc4ccccc4c3)c2)cc1 | -25 | 2.91
2 | OCc1csc(-c2ccccc2-c2ccccc2)n1 | -10 | 1.28
3 | N#Cc1ccc(C(=O)N2CCC[C@@H]2CC(=O)c2ccccc2)nc1 | -12 | 1.21
4 | O=C(c1ccsc1)N1CCC[C@H](N(CCN2CCCC2)C(=O)C2CCC2)C1 | -2 | 0.26
5 | O=S(=O)(NCc1csc(-c2cccnc2)n1)c1ccc2ccccc2c1 | 3 | -0.66
6 | O=C(N[C@H]1CCc2[nH]c3ccc(Br)cc3c2C1)c1ccc(Cl)c(Cl)c1 | -9 | 1.26
7 | Cc1cccc(-n2c(-c3sc(Nc4ccccc4)nc3-c3ccccc3)nc3ccccc3c2=O)c1 | 38 | -1.09
8 | O=C(Nc1ccc(F)cc1)[C@@H]1C[C@H](C(=O)NC2CCCCC2)CN(Cc2c[nH]c3ccccc23)C1 | -2 | 0.49
9 | Cc1oc(-c2ccsc2)nc1CN1CCC[C@H](Cn2cncn2)C1 | -1 | 0.08
10 | COCC[C@]1(NC(=O)Nc2cccc(C)c2)CCN(C(=O)c2ccc(C)c(C)c2)C1 | -2 | 0.25
11 | CC1(C)C(O)CC1NC(=O)C1CCN1Cc1ccccc1 (configuration not stated) | -8 | 0.76
12 | Cc1scnc1NC(=O)c1cccc(N)c1 | 1 | -0.07
13 | C[C@@H](c1ccon1)N(C)C(=O)c1n[nH]c2ccccc12 | -6 | 0.78
14 | CN(C(=O)c1ccc(C(=O)O)s1)C(C1CC1)C1CC1 | -13 | 1.96
15 | CCO[C@@H](C)C(=O)NCCc1nc(C)c(Cl)s1 | -12 | 1.9
16 | Nc1cc(C(=O)NCCc2cnn(-c3ccccc3)c2)n[nH]1 | -11 | 1.35
17 | CCCOc1c(CN2C[C@]3(CCOC3)CCC2=O)cccc1OC | 2 | -0.31
18 | CN(C)S(=O)(=O)c1ccc(C(=O)Nc2onc3c2CCC3)cc1 | -6 | 0.88
19 | C=CCN1CC(=O)N(CCn2ccnc2)C1=O | 9 | -1.1
20 | C=CC[C@@H]1N(Cc2nnc3n2CCCCC3)CCCC1(C)C | -5 | 0.93
21 | CN(Cc1nc(-c2cccs2)no1)C(=O)c1cccc(F)c1 | -19 | 1.73

Row | Structure (SMILES) | % Inhibition [%] | Z score
22 | CCC(=O)N(CCn1cccn1)c1nc2ccc(F)cc2s1 | 14 | -1.79
23 | CCN1c2ccc(Cl)cc2C(=O)NC12CCN(C(=O)NCc1ccccc1)CC2 | -6 | 0.72
24 | COCCNC(=O)C1CN(S(=O)(=O)c2ccccc2)CC1c1cccc(OC)c1OC (configuration not stated) | -6 | 0.65
25 | CCN(C)C(=O)CCc1n[nH]c(-c2ccc(OCc3cccc(F)c3)cc2)nc1=O | 5 | -0.64
26 | Cc1noc(C)c1CS(=O)(=O)[C@@H](C)C(=O)NCc1ccccc1 | 14 | -1.28
27 | O=C(c1ccc(=O)[nH]c1)N1C[C@@H]2CC[C@H]1CN(Cc1ccccn1)C2 | -7 | 1.5
28 | CCN1CCN(c2c(CN(C(=O)NC3CCCCC3)C3CC3)c(C)nn2-c2ccccc2)CC1 | -14 | 1.49
29 | O=C(Nc1cccc(Cl)c1)NC1(CO)COC(c2ccc(N3CCOCC3)cc2)OC1 (configuration not stated) | 24 | -2.77
30 | Cc1ccc(-c2n[nH]c(NC(=O)c3c(F)cccc3Cl)c2C)o1 | 18 | -1.96
31 | COC[C@@H](O)CNC(=O)N[C@@H]1C[C@H]1c1ccc(Cl)cc1Cl | -8 | 0.77
32 | CCN(CC)Cc1cnc2c(C(=O)N3CCCCC34CC4)cnn2c1 | -13 | 1.9
33 | O=C(c1ccc(-c2nccs2)cc1)N1CCCC2(CCOCC2)C1 | 6 | -1.15
34 | C=CCC1(CC=C)CCCCN1Cc1nccn1C | -2 | 0.43
35 | Cn1cnnc1N1CCN(C(=O)NC[C@]2(C)C[C@H]2c2ccccc2)CC1 | -9 | 1.79
36 | Cc1ccccc1[C@H](Cn1cnc2cccnc2c1=O)N(C)C | -9 | 1.55
37 | Cc1cc(NCc2cccnc2N(C)CCc2ccccn2)nc2ccccc12 | 1 | -0.13
38 | CC1(C#N)CN(C(=O)Nc2ccc(C3CCC3)cn2)C1 | -6 | 0.57
39 | Cc1[nH]c2nc(C(=O)N3CCCC3)nn2c(=O)c1Cc1ccccc1 | 5 | -0.62
40 | Cn1cc(C(=O)NC2C3CC2N(c2nccc(Oc4ccccc4)n2)C3)nn1 (configuration not stated) | -8 | 1.25
41 | CC1CCN(CCNc2ncnc3onc(-c4cc(F)cc(F)c4)c23)CC1 | -6 | 0.91
